The target of assay [1] is full-length PSMA3 fused to Luc2 (UniProt P25788). Put plainly: split reporter; split Gaussia luciferase (p21-Luc1, receptor-Luc2); bioluminescence of cell lysates with 20 μM coelenterazine, integrated over 10 s.
Assay [2] addresses PSMA3 Ct 187–255 fragment fused to Luc2 (UniProt P25788). The assay is described as above.
A further assay concerns the target GST–PSMA5 188-241 (UniProt P28066). Put plainly: pull-down; recombinant GST proteins on glutathione agarose incubated with HEK293 lysate (overexpressing 6xmyc p21 or naive) for 16 h at 4 °C; six washes with NP40 buffer; elution with 10 mM glutathione; immunoblot; only the target purified. (In general: Immunoblotting shows a protein as a band on a membrane.)
Another assay deals with GST–PSMA3 187–255 (UniProt P25788). Described as above.
Another assay has as its target PSMA5-3long (UniProt P28066). Put plainly: split reporter; BiFC in co-transfected cells with H2B–RFP, 48 h post-transfection; flow cytometry of at least 10,000 cells, BiFC signal normalised to RFP; fluorescence microscopy.
A further assay concerns the target HA–PSMA3–FPC (UniProt P25788). Described as above.
A further assay concerns the target PSMA5–FPC (UniProt P28066). The assay is described as above.
In a further assay the target is PSMA5-3short (UniProt P28066). The description is as above.

Protein sequences, listed by entry. Tags and fused reporters are not part of them. Lines headed by an entry give the natural chain unless they say otherwise; changes in a name come on top. Residues count along the entry.
UniProt P28066: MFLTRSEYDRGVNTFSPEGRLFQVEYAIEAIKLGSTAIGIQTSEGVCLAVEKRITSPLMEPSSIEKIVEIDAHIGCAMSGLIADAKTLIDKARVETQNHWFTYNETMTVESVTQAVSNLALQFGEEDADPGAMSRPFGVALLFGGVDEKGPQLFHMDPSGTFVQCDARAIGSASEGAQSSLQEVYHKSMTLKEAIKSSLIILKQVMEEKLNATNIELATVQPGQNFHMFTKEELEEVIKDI
GST–PSMA5 188-241: residues 188-241 of P28066
UniProt P38936: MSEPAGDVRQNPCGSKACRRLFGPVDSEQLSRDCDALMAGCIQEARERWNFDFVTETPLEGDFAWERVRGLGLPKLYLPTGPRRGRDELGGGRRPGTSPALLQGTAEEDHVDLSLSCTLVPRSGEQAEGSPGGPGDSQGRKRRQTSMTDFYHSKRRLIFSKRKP
UniProt P01100: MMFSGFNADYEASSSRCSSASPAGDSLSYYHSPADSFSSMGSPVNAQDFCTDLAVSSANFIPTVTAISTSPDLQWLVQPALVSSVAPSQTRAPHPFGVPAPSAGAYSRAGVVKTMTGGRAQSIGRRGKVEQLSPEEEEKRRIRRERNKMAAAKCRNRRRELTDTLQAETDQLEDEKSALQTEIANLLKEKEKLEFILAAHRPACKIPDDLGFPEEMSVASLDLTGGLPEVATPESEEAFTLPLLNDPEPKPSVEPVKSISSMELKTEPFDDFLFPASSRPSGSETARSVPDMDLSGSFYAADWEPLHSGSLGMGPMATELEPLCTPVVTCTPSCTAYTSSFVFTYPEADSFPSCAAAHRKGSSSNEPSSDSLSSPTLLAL

No constants are given. Whether binding was seen depends on the method and setting. In cells and extracts the contact can be indirect. Some binding calls cover weakened binding; strength is not graded here.

Turning to “p21 fused to Luc1 (from UniProt P38936 1-164)”, the binding result in assay [1] and in assay [2] was “binds” each time.

Consider “p53, endogenous (from UniProt P04637 1-393)”, for which the binding result in the assay with GST–PSMA5 188-241 is “no binding”; with GST–PSMA3 187–255 it was “binds”.

As to “6xMyc-p21 FPN (from UniProt P38936 1-164)”, the binding entry in the assay with PSMA5-3long is on record as “binds”; with HA–PSMA3–FPC, “binds”; with PSMA5–FPC it was “no binding”; with PSMA5-3short, “binds”.

As to “c-Fos, endogenous (from UniProt P01100 1-380)”, the values for the binding entry with GST–PSMA5 188-241 and with GST–PSMA3 187–255 were “no binding” and “binds”, respectively.

The record behind these values is paper PMC9600399.
